Data taken from PMC4081100.
The list shows a part of the results, in another mix than the full data. For some of these results: At the low end of the ranking the order means little. Some of the results follow. For some of these results: The source does not settle which construct or isoform was used.

What was measured:
Assay in all cases: universal protein binding microarray (PBM)
Settings in all cases: transcription factors of Arabidopsis thaliana; high values mean tight binding; most listed sequences are background and not binding sites; double strand, one strand shown
GST-NTL6(1-168) = GST-NTL6(1-168) (UniProt Q9SCK6)
GST-ANAC019 NAC domain = target: T1, GST-ANAC019 NAC domain (UniProt Q9C932)
T1 sequence: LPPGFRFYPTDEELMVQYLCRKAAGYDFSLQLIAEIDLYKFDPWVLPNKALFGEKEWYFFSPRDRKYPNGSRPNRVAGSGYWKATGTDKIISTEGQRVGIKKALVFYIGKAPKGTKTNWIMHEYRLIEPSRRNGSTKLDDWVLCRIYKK

GST-ANAC055(1-171) = target: T2, GST-ANAC055(1-171) (UniProt Q9LDY8)
T2 sequence: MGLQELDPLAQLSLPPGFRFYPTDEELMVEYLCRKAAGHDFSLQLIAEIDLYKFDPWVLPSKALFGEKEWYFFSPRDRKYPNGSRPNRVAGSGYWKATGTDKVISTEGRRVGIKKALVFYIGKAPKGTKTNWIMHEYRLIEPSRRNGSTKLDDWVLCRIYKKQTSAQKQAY

GST-NAP(1-166) = target: T3, GST-NAP(1-166) (UniProt O49255)
T3 sequence: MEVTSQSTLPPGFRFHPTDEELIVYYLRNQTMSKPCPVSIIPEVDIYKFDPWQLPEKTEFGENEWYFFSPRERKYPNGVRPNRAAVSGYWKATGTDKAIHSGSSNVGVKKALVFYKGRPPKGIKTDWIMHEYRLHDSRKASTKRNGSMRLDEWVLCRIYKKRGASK

GST-NST2(1-184) = target: T4, GST-NST2(1-184) (UniProt Q9M274)
T4 sequence: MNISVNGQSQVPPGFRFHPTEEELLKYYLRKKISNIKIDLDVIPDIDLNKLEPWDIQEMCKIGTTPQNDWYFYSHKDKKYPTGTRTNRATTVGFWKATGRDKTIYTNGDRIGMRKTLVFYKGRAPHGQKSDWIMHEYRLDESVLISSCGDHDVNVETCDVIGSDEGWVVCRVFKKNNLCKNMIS

GST-NTL8 NAC domain = target: T5, GST-NTL8 NAC domain (UniProt Q9XIN7)
T5 sequence: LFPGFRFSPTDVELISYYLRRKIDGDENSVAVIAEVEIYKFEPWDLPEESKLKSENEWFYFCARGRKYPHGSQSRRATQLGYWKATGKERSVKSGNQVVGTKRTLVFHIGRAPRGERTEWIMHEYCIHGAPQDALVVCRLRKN

GST-VND3 NAC domain = target: T6, GST-VND3 NAC domain (UniProt Q9FH59)
T6 sequence: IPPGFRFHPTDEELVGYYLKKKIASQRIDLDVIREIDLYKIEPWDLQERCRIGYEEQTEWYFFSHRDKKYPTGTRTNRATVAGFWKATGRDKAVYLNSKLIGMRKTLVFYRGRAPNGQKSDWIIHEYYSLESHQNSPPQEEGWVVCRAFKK

GST-VND7 NAC domain = target: T7, GST-VND7 NAC domain (UniProt Q9C8W9)
T7 sequence: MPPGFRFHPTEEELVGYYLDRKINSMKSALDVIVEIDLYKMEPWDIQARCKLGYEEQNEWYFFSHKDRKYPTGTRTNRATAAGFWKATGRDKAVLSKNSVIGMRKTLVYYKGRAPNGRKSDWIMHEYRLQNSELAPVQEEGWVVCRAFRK

[1] = target: T8, GST-VOZ2 (Arabidopsis thaliana) (UniProt Q9SLB9)
T8 sequence: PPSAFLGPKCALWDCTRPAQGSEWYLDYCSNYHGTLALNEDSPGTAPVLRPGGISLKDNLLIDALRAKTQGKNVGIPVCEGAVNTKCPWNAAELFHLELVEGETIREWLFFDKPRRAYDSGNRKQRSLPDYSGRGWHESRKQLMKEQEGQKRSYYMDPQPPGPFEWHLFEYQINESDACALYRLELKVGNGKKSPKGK

GST-WRKY1(266-371) = GST-WRKY1(266-371) (UniProt Q9SI37)
GST-ANAC092(1-176) = target: T9, GST-ANAC092(1-176) (UniProt Q9FKA0)
T9 sequence: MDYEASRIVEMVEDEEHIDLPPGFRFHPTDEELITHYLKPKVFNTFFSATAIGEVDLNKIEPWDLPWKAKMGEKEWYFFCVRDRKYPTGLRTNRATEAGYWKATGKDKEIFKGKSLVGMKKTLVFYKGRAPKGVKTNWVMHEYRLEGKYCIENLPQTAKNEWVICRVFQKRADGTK

[2] = target: T10, GST-ANAC092(1-285) full length (UniProt Q9FKA0)
T10 sequence: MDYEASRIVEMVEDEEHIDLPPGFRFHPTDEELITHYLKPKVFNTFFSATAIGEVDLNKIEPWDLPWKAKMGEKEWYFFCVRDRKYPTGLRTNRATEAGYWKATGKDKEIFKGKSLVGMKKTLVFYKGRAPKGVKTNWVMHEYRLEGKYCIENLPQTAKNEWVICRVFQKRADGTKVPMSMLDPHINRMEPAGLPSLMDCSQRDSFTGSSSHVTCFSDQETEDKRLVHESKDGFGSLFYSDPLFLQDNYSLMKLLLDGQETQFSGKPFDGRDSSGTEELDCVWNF

GST-ATAF1 NAC domain = target: T11, GST-ATAF1 NAC domain (UniProt Q39013)
T11 sequence: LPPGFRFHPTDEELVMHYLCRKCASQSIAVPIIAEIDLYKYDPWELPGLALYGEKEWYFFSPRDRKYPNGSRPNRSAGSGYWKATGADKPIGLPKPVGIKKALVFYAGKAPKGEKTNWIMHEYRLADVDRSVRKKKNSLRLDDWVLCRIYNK

| Sequence | binding signal (GST-NTL6(1-168)) | binding signal (GST-ANAC019 NAC domain) | binding signal (GST-ANAC055(1-171)) | binding signal (GST-NAP(1-166)) | binding signal (GST-NST2(1-184)) | binding signal (GST-NTL8 NAC domain) | binding signal (GST-VND3 NAC domain) | binding signal (GST-VND7 NAC domain) | binding signal [1] | binding signal (GST-WRKY1(266-371)) | binding signal (GST-ANAC092(1-176)) | binding signal [2] | binding signal (GST-ATAF1 NAC domain) |
| --- | --- | --- | --- | --- | --- | --- | --- | --- | --- | --- | --- | --- | --- |
| GCACTCAA | -0.106 E-score | 0.0452 E-score | -0.0324 E-score | -0.0648 E-score | 0.196 E-score | 0.0643 E-score | 0.00687 E-score | -0.0161 E-score | -0.0113 E-score | -0.203 E-score | – | – | – |
| AAGCACGC | 0.0272 E-score | – | 0.0401 E-score | – | – | -0.00597 E-score | -0.0287 E-score | 0.0817 E-score | -0.0114 E-score | -0.183 E-score | 0.32 E-score | – | – |
| ACGTGTAC | -0.111 E-score | 0.309 E-score | 0.286 E-score | – | – | -0.0962 E-score | 0.267 E-score | 0.206 E-score | -0.00108 E-score | -0.0273 E-score | – | 0.413 E-score | – |
| TGAGGAAA | – | -0.0166 E-score | 0.0458 E-score | 0.0209 E-score | – | 0.429 E-score | 0.0216 E-score | -0.0128 E-score | 0.0459 E-score | 0.0414 E-score | 0.0937 E-score | -0.0367 E-score | 0.0379 E-score |
| AGGAAAGG | 0.0725 E-score | – | -0.0786 E-score | -0.0741 E-score | – | – | -0.0383 E-score | 0.0354 E-score | -0.0699 E-score | 0.0426 E-score | – | 0.0104 E-score | -0.0755 E-score |
| ATCGCGTG | -0.178 E-score | -0.0654 E-score | -0.0663 E-score | 0.0283 E-score | – | -0.117 E-score | -0.00534 E-score | -0.0696 E-score | -0.138 E-score | -0.0193 E-score | – | – | -0.136 E-score |
| AAGTCAAG | – | -0.0129 E-score | 0.00688 E-score | -0.115 E-score | – | -0.0807 E-score | -0.0719 E-score | -0.0261 E-score | -0.0534 E-score | 0.479 E-score | -0.0387 E-score | – | – |
| AGGAAATC | 0.102 E-score | -0.0325 E-score | -0.0369 E-score | -0.143 E-score | – | – | 0.0183 E-score | 0.0422 E-score | -0.0373 E-score | -0.00653 E-score | – | -0.00696 E-score | 0.0317 E-score |
| GGGGAAAC | 0.17 E-score | 0.152 E-score | 0.0243 E-score | – | 0.00636 E-score | – | 0.00387 E-score | -0.00353 E-score | 0.0778 E-score | -0.19 E-score | – | – | -0.00334 E-score |
| CTAAGGAA | – | -0.00551 E-score | -0.0236 E-score | -0.172 E-score | – | 0.246 E-score | 0.0301 E-score | -0.0226 E-score | -0.0612 E-score | -0.135 E-score | 0.125 E-score | 0.128 E-score | 0.023 E-score |
| GCACGTTA | -0.00571 E-score | 0.153 E-score | 0.205 E-score | – | – | -0.121 E-score | 0.217 E-score | 0.246 E-score | -0.111 E-score | -0.173 E-score | – | 0.464 E-score | 0.226 E-score |
| ACTCAACC | 0.0444 E-score | -0.0489 E-score | – | -0.0323 E-score | – | -0.119 E-score | -0.0806 E-score | -0.0824 E-score | 0.0852 E-score | -0.0492 E-score | – | – | – |
| TCGCGTAA | – | -0.00554 E-score | 0.0885 E-score | 0.0199 E-score | 0.259 E-score | 0.0263 E-score | 0.0298 E-score | 0.14 E-score | 0.21 E-score | -0.0712 E-score | 0.283 E-score | – | – |
